This is an account of results in paper PMC4336329 (PLoS ONE, 2015).

In all, about 310,000 compounds went through this assay and about 14,000 (4.5%) showed an effect of 50% or more. The effect is printed as a negative number. This is one part of the list.
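Note: peak tail current of the secondary pulse compared with the same well before compound.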

The target of the assay is human ether-à-go-go-related gene (hERG) potassium channel (human, UniProt Q12809). In words: primary screen, population patch clamp on CHO cells stably expressing hERG.
Chain of human ether-à-go-go-related gene (hERG) potassium channel (Q12809 whole entry, looked up): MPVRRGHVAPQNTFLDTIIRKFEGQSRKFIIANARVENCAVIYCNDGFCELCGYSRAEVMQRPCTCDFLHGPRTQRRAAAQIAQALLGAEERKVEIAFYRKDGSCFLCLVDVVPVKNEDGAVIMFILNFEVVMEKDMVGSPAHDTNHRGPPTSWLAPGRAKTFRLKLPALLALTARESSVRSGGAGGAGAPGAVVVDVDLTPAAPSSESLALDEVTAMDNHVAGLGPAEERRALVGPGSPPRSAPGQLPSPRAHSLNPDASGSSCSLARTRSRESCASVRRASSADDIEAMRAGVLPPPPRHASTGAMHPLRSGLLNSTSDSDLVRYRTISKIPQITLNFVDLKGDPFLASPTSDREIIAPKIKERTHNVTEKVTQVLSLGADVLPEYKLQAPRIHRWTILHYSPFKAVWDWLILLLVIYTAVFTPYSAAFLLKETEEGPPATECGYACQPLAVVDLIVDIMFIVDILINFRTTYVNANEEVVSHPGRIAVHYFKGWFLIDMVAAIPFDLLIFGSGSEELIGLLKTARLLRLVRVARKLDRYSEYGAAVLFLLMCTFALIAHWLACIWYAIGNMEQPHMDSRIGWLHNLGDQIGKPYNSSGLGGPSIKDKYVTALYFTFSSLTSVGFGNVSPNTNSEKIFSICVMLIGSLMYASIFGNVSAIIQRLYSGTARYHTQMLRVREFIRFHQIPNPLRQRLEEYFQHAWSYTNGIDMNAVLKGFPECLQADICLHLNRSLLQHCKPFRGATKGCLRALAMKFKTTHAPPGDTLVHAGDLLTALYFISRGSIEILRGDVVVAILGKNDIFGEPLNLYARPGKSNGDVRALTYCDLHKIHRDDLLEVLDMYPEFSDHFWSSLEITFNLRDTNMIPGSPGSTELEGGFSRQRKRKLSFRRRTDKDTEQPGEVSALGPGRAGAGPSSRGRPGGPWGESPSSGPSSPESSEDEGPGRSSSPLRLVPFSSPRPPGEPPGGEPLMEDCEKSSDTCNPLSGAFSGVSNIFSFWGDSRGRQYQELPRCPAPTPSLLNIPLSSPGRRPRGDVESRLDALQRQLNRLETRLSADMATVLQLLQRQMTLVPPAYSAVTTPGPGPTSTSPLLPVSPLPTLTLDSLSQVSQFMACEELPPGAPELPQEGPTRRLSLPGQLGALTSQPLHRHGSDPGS
Take `Cc1ccc(OCCOC(=O)CCc2nc3ccccc3c(=O)[nH]2)cc1`: the “hERG current change (%, negative = inhibition) at 10uM” value was 4.32%.

As to `COc1ccc(S(=O)(=O)N2CCCCC2)cc1NC(=O)Cc1cccs1`, the “hERG current change (%, negative = inhibition) at 10uM” value was determined as 8.53%.

For `COc1ccccc1C(CNC(=O)c1ccc(S(=O)(=O)N2CCCCC2)cc1)N(C)C` (stereo not shown), the “hERG current change (%, negative = inhibition) at 10uM” value is listed as -19.4%.

For `O=C(C[n+]1cc(-c2ccc(F)cc2)n2c1CCC2)Nc1nc(-c2ccc(F)cc2)cs1.[Cl-]`, the “hERG current change (%, negative = inhibition) at 10uM” value is on record as -76.7%.

With `O=C(NCC1(N2CCCCC2)CCCCC1)c1ccc(NS(=O)(=O)c2ccc(F)cc2)cc1`, the “hERG current change (%, negative = inhibition) at 10uM” value is given as -42.9%.

As to `CCc1noc(C)c1C(=O)Nc1nc2ccc(OC)cc2s1`, the “hERG current change (%, negative = inhibition) at 10uM” value was -10.3%.

Turning to `O=C1c2ccc(-c3ccc4c(c3)C(=O)N(CCO)C4=O)cc2C(=O)N1CCO`, the “hERG current change (%, negative = inhibition) at 10uM” value was found to be 14.6%.

As for `N/C(=N\c1nc2ccccc2o1)NC(=O)c1ccc(F)cc1`, the “hERG current change (%, negative = inhibition) at 10uM” value is given as -17.5%.

For `CCOC(=O)c1cc(-c2ccc(F)cc2)n(CC(=O)Nc2nccs2)c1C`, the “hERG current change (%, negative = inhibition) at 10uM” value came out at 1.55%.

For `COC(=O)CN1C(=O)[C@H]2[C@@H](C3CC3)N3C(=O)CN(Cc4ccc(-c5ccccc5)cc4)C(=O)[C@@]3(Cc3ccccc3)[C@H]2C1=O`, the “hERG current change (%, negative = inhibition) at 10uM” value is reported as -42.5%.

For the molecule `CC(OC(=O)CN1C(=O)C2CC=CCC2C1=O)C(=O)Nc1ccc(F)cc1Cl` (stereo not shown), the “hERG current change (%, negative = inhibition) at 10uM” value was -15.1%.

Consider `O=C(Cn1nnc2ccccc21)NNC(=O)c1ccccc1`, for which the “hERG current change (%, negative = inhibition) at 10uM” value is listed as 19%.

For the molecule `Cc1ccc(-n2cc(CN3CCN(Cc4nccn4C)CC3)c(-c3cccc(C)c3)n2)cc1`, the “hERG current change (%, negative = inhibition) at 10uM” value is -62.7%.

For the molecule `CN(CC(=O)Nc1cccc(C#N)c1)Cc1ccc(Cl)cc1`, the “hERG current change (%, negative = inhibition) at 10uM” value is -34.1%.

Regarding `CCOC(=O)C(C)n1cnc2scc(-c3ccc(C)c(C)c3)c2c1=O` (stereo not shown), the “hERG current change (%, negative = inhibition) at 10uM” value turned out to be 10.7%.

For the molecule `CCn1c(CN2CCN(c3cccc(C)c3C)CC2)n[nH]c1=S`, the “hERG current change (%, negative = inhibition) at 10uM” value was found to be 6.69%.

Turning to `O=C(CC1C(=O)NCCN1Cc1c(F)cccc1Cl)NCCCn1cccn1` (stereo not shown), the “hERG current change (%, negative = inhibition) at 10uM” value amounted to 10.8%.

`COc1cccc(OC)c1OCC(C)CNCC1CCCO1.Cl` (stereo not shown): the “hERG current change (%, negative = inhibition) at 10uM” value was -8.61%.

As to `O=C(NC1CCCCC1)c1cc(C(=O)c2ccccc2Br)c[nH]1`, the “hERG current change (%, negative = inhibition) at 10uM” value was 22.7%.

Take `CC(=O)Nc1ccc(C(=O)NNC(=O)CCCCC(=O)NNC(=O)c2ccc(NC(C)=O)cc2)cc1`: the “hERG current change (%, negative = inhibition) at 10uM” value is -2.82%.

With `O=C(NC1CCCCC1)N1CCN(c2ccc([N+](=O)[O-])cc2)CC1`, the “hERG current change (%, negative = inhibition) at 10uM” value is given as -92.4%.

`Cc1cccc(Oc2ccccc2NS(=O)(=O)c2ccc(CCC(=O)O)cc2)c1`: the “hERG current change (%, negative = inhibition) at 10uM” value is given as -39.8%.
